In PubChem BioAssay AID624417 (National Center for Advancing Translational Sciences (NCATS), 2012):
Hit rate of the full screen: of about 410,000 compounds, about 6,400 (1.6%) were called active. The shares of active, inactive and inconclusive entries below differ from those in the screen. Calls follow the shape of the dose curve; as a rule, active = well fitted inhibition curve with a large enough effect; inconclusive = small, poorly fitted or top-dose-only effect; inactive = no such curve, though single readings can be large or run the other way. A potency beside an inconclusive call is a rough fit, not a confirmed value.
% is scaled to controls: 0 for no effect and ±100 for the full control effect; potency is read from the fitted curve at half-maximal effect; tags tell the direction and shape of the fitted curve.
Also: nearly all actives have a fitted effect of over 55% in size.

What follows are molecules tested against Glucagon-like peptide 1 receptor (Homo sapiens) (UniProt P43220) (assay: qHTS of GLP-1 Receptor Inverse Agonists (Inhibition Mode)). Details: HEK293 GLP-1R CRE-luciferase, luminescence, 24 h, GLP-1R form is constitutively active; activity change, negative = inhibition: at 38.3 µM (top of the series) unless noted.
UniProt P43220, sequence (P43220 whole entry, looked up): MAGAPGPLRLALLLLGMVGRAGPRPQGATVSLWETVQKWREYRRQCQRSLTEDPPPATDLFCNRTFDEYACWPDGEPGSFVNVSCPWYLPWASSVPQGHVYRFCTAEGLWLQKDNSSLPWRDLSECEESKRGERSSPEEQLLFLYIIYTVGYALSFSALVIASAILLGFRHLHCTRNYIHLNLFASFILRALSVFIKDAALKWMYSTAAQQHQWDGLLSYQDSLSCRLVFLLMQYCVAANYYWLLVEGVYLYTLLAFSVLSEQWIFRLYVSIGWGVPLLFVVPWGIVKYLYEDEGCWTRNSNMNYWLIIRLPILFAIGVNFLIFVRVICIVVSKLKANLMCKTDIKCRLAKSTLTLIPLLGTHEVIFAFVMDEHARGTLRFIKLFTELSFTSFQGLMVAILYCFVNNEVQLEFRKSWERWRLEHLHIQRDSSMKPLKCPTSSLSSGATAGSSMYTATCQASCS
Procedure, shortened: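 Luminescence readout: a drop in cAMP-driven luciferase signal flags inverse agonism at a constitutively active GLP-1R stably expressed in HEK293. Compound exposure lasted 24 hr at 37 deg C, 5% CO2.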
`O=C(CN(C(=O)CSc1nnc(COc2ccccc2)o1)c1ccc(F)cc1)NC1CCCC1` was tested, and the Potency was inconclusive: 11.2 µM [inhibitor, single point]. For `O=C(NCc1cccs1)c1cccc2c(-c3ccc(F)c(F)c3)coc12`, the Potency was inconclusive: 28.2 µM [inhibitor, single point]. With `O=C(c1ccccc1)N1CCN(Cc2ccccc2Br)CC1` the Potency was inconclusive: 11.2 µM [inhibitor, partial curve]. For `O=C(COc1ccc(Cl)cc1)N1CCN(C(=O)c2ccccc2F)CC1`, the Potency was inconclusive: 28.2 µM [inhibitor, single point]. For `Oc1ccc(-c2nc3ccc(Cl)cn3c2Nc2ccc(Cl)cc2)cc1`, the Potency was inconclusive: 12.6 µM [inhibitor, partial curve, poor fit]. `O=C1CCC(c2ccccc2)(c2ccccc2)CC1` was tested, and the Potency was inconclusive: 11.2 µM [inhibitor, single point]. For `COc1ccc(C(=O)CSc2cc(C)nc(SCC(=O)c3ccc(C)cc3)n2)cc1`, the Potency was inconclusive: 3.16 µM [inhibitor, full curve, poor fit]. For `Cc1ccc(N(CC(=O)NCCSCc2ccco2)S(=O)(=O)c2ccc(C)cc2)cc1`, the Potency was inconclusive: 14.1 µM [inhibitor, partial curve, poor fit]. In the case of `COc1ccc2c(c1)c(C(=O)N/N=C/c1cccc(Br)c1)c(C)n2C`, the Potency is reported as inconclusive: 11.2 µM [inhibitor, single point]. `O=C(Cc1ccc(Cl)cc1)Nc1ccc(SC(F)F)cc1` was tested, and the Potency was inconclusive: 8.91 µM [inhibitor, partial curve]. For `C=CCN(CC=C)Cc1cc(=O)oc2ccc3ccccc3c12`, the Potency was inconclusive: 8.91 µM [inhibitor, partial curve, poor fit]. `CCc1ccccc1NC(=O)CCS(=O)(=O)c1ccc(OC)cc1` was tested, and the Potency was “inactive”. With `CCOC(=O)c1[nH]c(C)c(C(=O)N2CCN(c3cccc(Cl)c3)CC2)c1C` the Potency was inconclusive: 22.4 µM [inhibitor, single point]. For `Cc1cc(NC(=O)c2cc(-c3ccccc3Cl)nc3ccccc23)no1`, the Potency was inconclusive: 15.8 µM [inhibitor, single point]. For `CC(C)Cn1c(N)c(C(=O)COC(=O)c2cccc(Cl)c2)c(=O)n(C)c1=O`, the Potency was inconclusive: 31.6 µM [inhibitor, single point]. `CNC(=O)NC(=O)C(c1ccccc1)N(C)CC1COc2ccccc2O1` (stereo unspecified) was tested, and the Potency was inconclusive: 10 µM [inhibitor, partial curve]. In the case of `COc1ccccc1CNC(=O)c1cc(C(C)C)nc2ccccc12`, the Potency is reported as inconclusive: 10 µM [inhibitor, single point]. With `Cc1ccc(-n2ncc3c(SCc4cccnc4)ncnc32)c(C)c1` the Potency was inconclusive: 1 µM [inhibitor, full curve]. In the case of `O=C(N/N=C/c1c[nH]c2ccccc12)c1ccn(Cc2ccc(Cl)cc2)n1`, the Potency is reported as inconclusive: 7.94 µM [inhibitor, partial curve, poor fit]. For `Cc1ccnc(NC(=O)C2CCN(S(=O)(=O)c3ccc4ccccc4c3)CC2)c1`, the Potency was inconclusive: 12.6 µM [inhibitor, single point]. `CN(C)CCOC1c2ccccc2CSc2ccccc21` (stereo unspecified) was tested, and the Potency was inconclusive: 28.2 µM [inhibitor, single point]. `O=C(Nc1ccccc1)c1ccc2c(c1)OCCCO2` was tested, and the Potency was inconclusive: 28.2 µM [inhibitor, single point]. `Cc1cc(C)cc(N(CC(=O)NCCc2ccc(Cl)cc2)S(=O)(=O)c2c(C)noc2C)c1` was tested, and the Potency was “inactive”. `O=C(Cc1ccccc1)NNC(=O)Nc1ccc(Cl)c(Cl)c1` was tested, and the Potency was inconclusive: 11.2 µM [inhibitor, partial curve, poor fit]. With `S=C(NCc1ccco1)NC1CCCc2ccccc21` (stereo unspecified) the Potency was inconclusive: 15.8 µM [inhibitor, partial curve, poor fit]. With `CC(C)C(C(=O)Nc1ccncc1)c1ccc(Cl)cc1` (stereo unspecified) the Potency was inconclusive: 10 µM [inhibitor, partial curve, poor fit]. For `COc1ccccc1CC(=O)NNS(=O)(=O)c1ccc([N+](=O)[O-])cc1`, the Potency was inconclusive: 0.794 µM [inhibitor, full curve, poor fit]. In the case of `CC(=O)Nc1ccc(C2Nc3ccccc3C(=O)N2C2CCCCC2)cc1` (stereo unspecified), the Potency is reported as “inactive”. For `CC(=O)c1ccc(N2CCN(CC(=O)NCc3ccccc3)CC2)cc1`, the Potency was “inactive”. In the case of `CNC(=S)N1CCN(c2nc3ccccc3s2)CC1`, the Potency is reported as “inactive”. In the case of `CCC(=O)N1c2ccccc2CC1C(=O)NCc1ccc(CC)cc1` (stereo unspecified), the Potency is reported as “inactive”. For `Oc1ccc(N2CCN(Cc3nc4ccccc4[nH]3)CC2)cc1`, the Potency was inconclusive: 3.55 µM [inhibitor, partial curve, poor fit]. With `Cc1[nH][nH]c(=O)c1C(c1ccc(O)c([N+](=O)[O-])c1)c1c(C)[nH][nH]c1=O` the Potency was “inactive”. With `CCc1ccc(-c2cc(C(=O)N/N=C/c3c[nH]c4ccccc34)[nH]n2)cc1` the Potency was inconclusive: 2 µM [inhibitor, full curve]. In the case of `Cc1ccnc(NC(=O)C2CCN(S(=O)(=O)c3ccc(C)c(C)c3)CC2)c1`, the Potency is reported as inconclusive: 8.91 µM [inhibitor, partial curve, poor fit]. `Cc1ncsc1CCC(=O)N1CCCC(Nc2ccc(C(C)C)cc2)C1` (stereo unspecified) was tested, and the Potency was inconclusive: 31.6 µM [inhibitor, single point]. For `CC(C)=NNc1nc(-c2ccc([N+](=O)[O-])cc2)cs1`, the activity change, negative = inhibition was inconclusive: -33.7% [inhibitor] [at 7.66 µM]. `c1ccc(-c2cn(CC3CCCCC3)nn2)cc1` was tested, and the Potency was “inactive”. With `Cc1ccc(OCCSc2nnc(-c3cccs3)o2)cc1` the Potency was inconclusive: 28.2 µM [inhibitor, single point]. In the case of `Cc1cccc(N2CCN(C(=O)c3ccccn3)CC2C)c1` (stereo unspecified), the Potency is reported as “inactive”. With `Cc1nn(CCc2nn[nH]n2)c2nc(-c3ccccc3)cc(C(F)(F)F)c12` the Potency was inconclusive: 28.2 µM [inhibitor, single point]. For `CC1=NN(C(N)=S)C(=O)C1N=Nc1cccc(Cl)c1` (stereo unspecified), the Potency was inconclusive: 0.501 µM [inhibitor, full curve, poor fit]. For `O=C(Cc1coc2cc3c(cc12)CCC3)NCC1(N2CCCCC2)CCCCC1`, the Potency was active: 10 µM. With `CCC(CC)NCC(O)COc1ccc(Br)cc1` (stereo unspecified) the Potency was inconclusive: 20 µM [inhibitor, partial curve, poor fit]. For `CC(=O)Nc1ccc(NS(=O)(=O)c2c(C(=O)N3CCCCCC3)c(C)n(C)c2C)cc1`, the Potency was “inactive”. In the case of `CN(C)CCCN(C(=O)c1ccc2c(c1)CCCC2)c1nc2ccc(Cl)cc2s1`, the Potency is reported as active: 5.01 µM. In the case of `CCSc1nc(N2CCCCC2)c2c(c1C#N)CCCC2`, the Potency is reported as “inactive”. In the case of `FC(F)(F)c1ccc(Cl)c(N/N=C/c2ccc(N3CCOCC3)s2)c1`, the Potency is reported as inconclusive: 22.4 µM [inhibitor, single point]. `Cc1ccc(-n2ncc(C(=O)NCc3ccc4c(c3)OCO4)c2C2CCN(C(=O)OC(C)(C)C)CC2)c(C)c1` was tested, and the Potency was inconclusive: 22.4 µM [inhibitor, single point]. In the case of `O=C(COc1c(Br)cc(Br)c2cccnc12)N1CCCCC1`, the Potency is reported as inconclusive: 7.08 µM [inhibitor, partial curve, poor fit]. In the case of `COc1cc(C(=O)N/N=C/c2sccc2C)cc(OC)c1OC`, the Potency is reported as inconclusive: 0.891 µM [inhibitor, full curve, poor fit]. For `CCC1CCc2c(sc(NC(=O)c3ccco3)c2C(N)=O)C1` (stereo unspecified), the Potency was “inactive”. With `COc1ccc(NC(=O)C(C)N(C)Cc2ccc3ccccc3c2)cc1` (stereo unspecified) the Potency was inconclusive: 14.1 µM [inhibitor, single point]. In the case of `Cc1ccn(CC(=O)N2CCCC(C(=O)c3cccc4ccccc34)C2)n1` (stereo unspecified), the Potency is reported as inconclusive: 28.2 µM [inhibitor, single point]. For `CCc1nnc(NC(=O)CSc2nnc(-c3ccccc3O)n2-c2ccc(C)cc2C)s1`, the Potency was inconclusive: 4.47 µM [inhibitor, full curve]. With `Oc1ccc(C(c2nnnn2C2CCCC2)N2CCc3ccccc3C2)cc1` (stereo unspecified) the Potency was inconclusive: 12.6 µM [inhibitor, single point]. In the case of `CCOc1ccc(NS(=O)(=O)c2c(C)nc3sc(CC)nn3c2=O)cc1`, the Potency is reported as “inactive”. `Cc1ccc(C(=O)NCCN2CCC(n3c(=O)[nH]c4ccccc43)CC2)cc1F` was tested, and the Potency was inconclusive: 10 µM [inhibitor, partial curve, poor fit]. In the case of `Cc1ccc2nc(-c3ccco3)c(Cc3cccc(Cl)c3)n2c1`, the Potency is reported as inconclusive: 31.6 µM [inhibitor, single point]. In the case of `Cc1cccc(C)c1NC1=NC(=S)N(c2ccccc2)C12CCOC(C)(C)C2` (stereo unspecified), the Potency is reported as inconclusive: 7.94 µM [inhibitor, partial curve, poor fit]. `COc1ccccc1/C=C/c1ccc2cccc(O)c2n1` was tested, and the Potency was inconclusive: 11.2 µM [inhibitor, single point]. For `CN(CC(=O)Nc1cccc(F)c1)C(=O)c1cc2c(s1)CCCCC2`, the Potency was inconclusive: 2.51 µM [inhibitor, full curve]. For `Cc1onc(-c2c(F)cccc2Cl)c1C(O)c1ccc(F)cc1` (stereo unspecified), the Potency was inconclusive: 10 µM [inhibitor, partial curve]. In the case of `N#Cc1c2n(c3c(=S)nc[nH]c13)CCCCC2`, the Potency is reported as inconclusive: 8.91 µM [inhibitor, partial curve]. `FC(F)(F)c1ccccc1-n1c(-c2ccco2)n[nH]c1=S` was tested, and the Potency was inconclusive: 6.31 µM [inhibitor, partial curve, poor fit]. `CC(NC(=O)CCc1nnc(C2(c3ccc(Cl)cc3)CCC2)o1)C1CC1` (stereo unspecified) was tested, and the Potency was inconclusive: 8.91 µM [inhibitor, partial curve, poor fit].
